From paper PMC9911399, “Two distinct binding modes provide the RNA-binding protein RbFox with extraordinary sequence specificity”
Residue numbers refer to the chain shown, from its start. The list shows a part of the results.

T1: RBFOX1 RRM RbFoxmut (Fox-RRM*) (Homo sapiens, UniProt Q9NWB1 109-208, R118D;E147R;N151S;E152T)
T1 sequence: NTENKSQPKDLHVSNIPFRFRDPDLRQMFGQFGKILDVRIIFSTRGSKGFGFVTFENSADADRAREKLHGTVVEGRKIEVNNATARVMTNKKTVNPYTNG

B1: CCCGCAU (DNA:RNA)
RNA: GGGAGACCGGAAUUCAGAUUGUCCCCCGCAUUUAAAUCCCGUCGUAGCCACCA
DNA 1: CAATCTGAATTCCGGTCTCCC
DNA 2: TGGTGGCTACGACGGGATT
B2: GGAGAUG (DNA:RNA)
RNA: B1 RNA with C25G, C26G, C27A, C29A, A30U, U31G
DNA 1: CAATCTGAATTCCGGTCTCCC
DNA 2: TGGTGGCTACGACGGGATT
B3: GGAUGUG (DNA:RNA)
RNA: GGGAGACCGGAAUUCAGAUUGUCCGGAUGUGUUAAAUCCCGUCGUAGCCACCA
DNA 1: CAATCTGAATTCCGGTCTCCC
DNA 2: TGGTGGCTACGACGGGATT
B4: ACUUUCA (DNA:RNA)
RNA: B1 RNA with C25A, C27U, G28U, C29U, A30C, U31A
DNA 1: CAATCTGAATTCCGGTCTCCC
DNA 2: TGGTGGCTACGACGGGATT
B5: CAGUUGG (DNA:RNA)
RNA: B3 RNA with G25C, G26A, A27G, G29U, U30G
DNA 1: CAATCTGAATTCCGGTCTCCC
DNA 2: TGGTGGCTACGACGGGATT
B6: CUAGUAU (DNA:RNA)
RNA: B1 RNA with C26U, C27A, C29U
DNA 1: CAATCTGAATTCCGGTCTCCC
DNA 2: TGGTGGCTACGACGGGATT
B7: CUUAAAA (DNA:RNA)
RNA: B1 RNA with C26U, C27U, G28A, C29A, U31A
DNA 1: CAATCTGAATTCCGGTCTCCC
DNA 2: TGGTGGCTACGACGGGATT
B8: AGCAACU (DNA:RNA)
RNA: B1 RNA with C25A, C26G, G28A, C29A, A30C
DNA 1: CAATCTGAATTCCGGTCTCCC
DNA 2: TGGTGGCTACGACGGGATT
B9: UGCCAGA (DNA:RNA)
RNA: B1 RNA with C25U, C26G, G28C, C29A, A30G, U31A
DNA 1: CAATCTGAATTCCGGTCTCCC
DNA 2: TGGTGGCTACGACGGGATT
B10: AGUAAUA (DNA:RNA)
RNA: B3 RNA with G25A, A27U, U28A, G29A, G31A
DNA 1: CAATCTGAATTCCGGTCTCCC
DNA 2: TGGTGGCTACGACGGGATT
B11: UUAUUCA (DNA:RNA)
RNA: B3 RNA with G25U, G26U, G29U, U30C, G31A
DNA 1: CAATCTGAATTCCGGTCTCCC
DNA 2: TGGTGGCTACGACGGGATT
B12: ACUAGUC (DNA:RNA)
RNA: B3 RNA with G25A, G26C, A27U, U28A, G31C
DNA 1: CAATCTGAATTCCGGTCTCCC
DNA 2: TGGTGGCTACGACGGGATT
B13: GGAUAGA (DNA:RNA)
RNA: B3 RNA with G29A, U30G, G31A
DNA 1: CAATCTGAATTCCGGTCTCCC
DNA 2: TGGTGGCTACGACGGGATT
B14: GCACGUC (DNA:RNA)
RNA: B3 RNA with G26C, U28C, G31C
DNA 1: CAATCTGAATTCCGGTCTCCC
DNA 2: TGGTGGCTACGACGGGATT
B15: ACGUGUA (DNA:RNA)
RNA: B3 RNA with G25A, G26C, A27G, G31A
DNA 1: CAATCTGAATTCCGGTCTCCC
DNA 2: TGGTGGCTACGACGGGATT
B16: GAACCAU (DNA:RNA)
RNA: B1 RNA with C25G, C26A, C27A, G28C
DNA 1: CAATCTGAATTCCGGTCTCCC
DNA 2: TGGTGGCTACGACGGGATT
B17: GUUCAUC (DNA:RNA)
RNA: B3 RNA with G26U, A27U, U28C, G29A, G31C
DNA 1: CAATCTGAATTCCGGTCTCCC
DNA 2: TGGTGGCTACGACGGGATT
B18: ACACAUC (DNA:RNA)
RNA: B3 RNA with G25A, G26C, U28C, G29A, G31C
DNA 1: CAATCTGAATTCCGGTCTCCC
DNA 2: TGGTGGCTACGACGGGATT
B19: UAUGAAC (DNA:RNA)
RNA: B1 RNA with C25U, C26A, C27U, C29A, U31C
DNA 1: CAATCTGAATTCCGGTCTCCC
DNA 2: TGGTGGCTACGACGGGATT
B20: GACGCCG (DNA:RNA)
RNA: B1 RNA with C25G, C26A, A30C, U31G
DNA 1: CAATCTGAATTCCGGTCTCCC
DNA 2: TGGTGGCTACGACGGGATT
B21: CUUAGUA (DNA:RNA)
RNA: B3 RNA with G25C, G26U, A27U, U28A, G31A
DNA 1: CAATCTGAATTCCGGTCTCCC
DNA 2: TGGTGGCTACGACGGGATT
B22: ACUGCUA (DNA:RNA)
RNA: B1 RNA with C25A, C27U, A30U, U31A
DNA 1: CAATCTGAATTCCGGTCTCCC
DNA 2: TGGTGGCTACGACGGGATT
B23: AGUGUCU (DNA:RNA)
RNA: B1 RNA with C25A, C26G, C27U, C29U, A30C
DNA 1: CAATCTGAATTCCGGTCTCCC
DNA 2: TGGTGGCTACGACGGGATT
B24: CAUCCGU (DNA:RNA)
RNA: B1 RNA with C26A, C27U, G28C, A30G
DNA 1: CAATCTGAATTCCGGTCTCCC
DNA 2: TGGTGGCTACGACGGGATT
B25: AUCUUAG (DNA:RNA)
RNA: B1 RNA with C25A, C26U, G28U, C29U, U31G
DNA 1: CAATCTGAATTCCGGTCTCCC
DNA 2: TGGTGGCTACGACGGGATT
B26: GAAGUGA (DNA:RNA)
RNA: B3 RNA with G26A, U28G, G29U, U30G, G31A
DNA 1: CAATCTGAATTCCGGTCTCCC
DNA 2: TGGTGGCTACGACGGGATT
B27: CUUCGGG (DNA:RNA)
RNA: B3 RNA with G25C, G26U, A27U, U28C, U30G
DNA 1: CAATCTGAATTCCGGTCTCCC
DNA 2: TGGTGGCTACGACGGGATT
B28: GUUAGCA (DNA:RNA)
RNA: B3 RNA with G26U, A27U, U28A, U30C, G31A
DNA 1: CAATCTGAATTCCGGTCTCCC
DNA 2: TGGTGGCTACGACGGGATT
B29: CUCAACG (DNA:RNA)
RNA: B1 RNA with C26U, G28A, C29A, A30C, U31G
DNA 1: CAATCTGAATTCCGGTCTCCC
DNA 2: TGGTGGCTACGACGGGATT
B30: AUUCGCU (DNA:RNA)
RNA: B1 RNA with C25A, C26U, C27U, G28C, C29G, A30C
DNA 1: CAATCTGAATTCCGGTCTCCC
DNA 2: TGGTGGCTACGACGGGATT
B31: CUUAGGA (DNA:RNA)
RNA: B1 RNA with C26U, C27U, G28A, C29G, A30G, U31A
DNA 1: CAATCTGAATTCCGGTCTCCC
DNA 2: TGGTGGCTACGACGGGATT

Target: T1, RBFOX1 RRM RbFoxmut (Fox-RRM*)
Assay: EMSA; HiTS-Eq, 1 nM pool, 10 min; buffer printed only for the single-RNA assays: 10 mM Tris pH 7.5, 150 mM NaCl, 3.4 mM EDTA, 0.001% NP-40, 30 C
Conditions: tags: His6 N-terminal (pET28a); label: 5' 32P
In short: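 Relative association constants, normalised to the cognate motif, were derived by comparing read counts of each RNA species with those of the control reaction. The RNA sequenced was the free fraction, separated by 8% native PAGE after a 10 min equilibration in 50 µL of 1 nM 5′-radiolabelled RNA (7 randomized nucleotides) with increasing concentrations of purified wild-type or mutant RbFox RRM.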

Question: B1 was tested. Which binding signal did it give?
Answer: 0.0703 KA relative to UGCAUGU

Question: B2 was tested. Which binding signal did it give?
Answer: 0.312 KA relative to UGCAUGU

Question: With B3 as the binder, how does the binding signal read?
Answer: 0.451 KA relative to UGCAUGU

Question: B4 was tested. Which binding signal did it give?
Answer: 0.0925 KA relative to UGCAUGU

Question: With B5 as the binder, how does the binding signal read?
Answer: 0.108 KA relative to UGCAUGU

Question: B6 was tested. Which binding signal did it give?
Answer: 0.134 KA relative to UGCAUGU

Question: For B7, which binding signal is on record?
Answer: 0.109 KA relative to UGCAUGU

Question: How did the binding signal turn out when B8 was run?
Answer: 0.0677 KA relative to UGCAUGU

Question: Which binding signal does the source give for B9 here?
Answer: 0.116 KA relative to UGCAUGU

Question: With B10 as the binder, how does the binding signal read?
Answer: 0.135 KA relative to UGCAUGU

Question: With B11 as the binder, how does the binding signal read?
Answer: 0.106 KA relative to UGCAUGU

Question: Which binding signal does the source give for B12 here?
Answer: 0.0862 KA relative to UGCAUGU

Question: For B13, which binding signal is on record?
Answer: 0.119 KA relative to UGCAUGU

Question: Which binding signal does the source give for B14 here?
Answer: 0.117 KA relative to UGCAUGU

Question: Which binding signal does the source give for B15 here?
Answer: 0.276 KA relative to UGCAUGU

Question: Which binding signal does the source give for B16 here?
Answer: 0.0693 KA relative to UGCAUGU

Question: How did the binding signal turn out when B17 was run?
Answer: 0.0631 KA relative to UGCAUGU

Question: B18 was tested. Which binding signal did it give?
Answer: 0.07 KA relative to UGCAUGU

Question: For B19, which binding signal is on record?
Answer: 0.0597 KA relative to UGCAUGU

Question: With B20 as the binder, how does the binding signal read?
Answer: 0.0827 KA relative to UGCAUGU

Question: Which binding signal does the source give for B21 here?
Answer: 0.162 KA relative to UGCAUGU

Question: Which binding signal does the source give for B22 here?
Answer: 0.0993 KA relative to UGCAUGU

Question: B23 was tested. Which binding signal did it give?
Answer: 0.137 KA relative to UGCAUGU

Question: With B24 as the binder, how does the binding signal read?
Answer: 0.103 KA relative to UGCAUGU

Question: Which binding signal does the source give for B25 here?
Answer: 0.153 KA relative to UGCAUGU

Question: With B26 as the binder, how does the binding signal read?
Answer: 0.0795 KA relative to UGCAUGU

Question: B27 was tested. Which binding signal did it give?
Answer: 0.0971 KA relative to UGCAUGU

Question: How did the binding signal turn out when B28 was run?
Answer: 0.18 KA relative to UGCAUGU

Question: For B29, which binding signal is on record?
Answer: 0.107 KA relative to UGCAUGU

Question: B30 was tested. Which binding signal did it give?
Answer: 0.132 KA relative to UGCAUGU

Question: B31 was tested. Which binding signal did it give?
Answer: 0.069 KA relative to UGCAUGU
